# Tested on: red blood cells
# Test: Toxicity and oxidative stress in red blood cells
smiles,measurement,value
CN(C)CCc1c[nH]c2cccc(O)c12 [psilocin],effect against oxidative stress in red blood cells,protective effect against oxidative stress

# Reference: US20240424005A1, “DIAGNOSING, MONITORING AND TREATING NEUROLOGICAL DISEASE WITH PS[…] DERIVATIVES AND mRNA MEASUREMENTS” (NOVA MENTIS LIFE SCIENCE CORP., priority 2021, published 2024)
